The record followed here is PubChem BioAssay (NCI).

The experiment has as its system NCI-H322M lung. Description: NCI tumour cell line growth inhibition, 48 h.

Where “and” joins values, the source holds several entries; their conditions need not be identical. Identical values can stand only once.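 These data come from cells grown in 96-well plates and exposed to compound for 48 hours at five concentrations. Here, GI50 denotes the concentration required for 50% inhibition of growth. TGI: total growth inhibition.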

Take `O=c1[nH][nH]c(=O)c2c(O)c(-c3ccccc3)ncc12`: the GI50 is 31.7 µM and 70 µM; the TGI turned out to be 851 µM. The compound `CCCCCCc1cc2cc(-c3cn4ccccc4n3)c(=O)oc2cc1O` returned a TGI of over 100 µM. `CCc1nc(N)nc(N)c1-c1ccc(N(C)Cc2ccccc2)c([N+](=O)[O-])c1` yielded a TGI of 24.5 µM. As to `O=C(/C=C/c1ccc(O)c(O)c1)c1ccc(O)cc1O`, the TGI was found to be 17.2 µM. For `CC(C)c1ccc(C(c2c(O)c3ccccc3oc2=O)c2c(O)c3ccccc3oc2=O)cc1`, the TGI amounted to 37.8 µM. `COc1cc(C2SCC(=O)N2c2ccc(Cl)cc2)cc(OC)c1OC` (centres undefined): the TGI was over 100 µM. Regarding `O=C1/C=C/[C@@H](O)[C@@H]2C[C@@H](O)C[C@H]2/C=C/CCC[C@H](CCc2ccc(NC(=S)Nc3ccc4c(c3)C(=O)OC43c4ccc(O)cc4Oc4cc(O)ccc43)cc2)O1`, the GI50 was 0.567 µM and the TGI is over 100 µM.
